The values below come from PubChem BioAssay AID1240 (Sanford-Burnham Center for Chemical Genomics, 2008).

The structures appear in SMILES notation. Screen size: about 50,000 compounds; about 800 (1.6%) showed an effect of 50% or more. This is one part of the list.

The assay concerns the target Bcl-2-like protein 10 (Homo sapiens) (UniProt Q9HD36). Description: Phenotype converters, Bcl-B/TR3 peptide binding displacement, primary biochemical FP (AID 1240).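 Note: 0% = Bcl-B with tracer peptide and DMSO and 100% = tracer peptide lacking Bcl-B.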 Conditions: GST-Bcl-B / FITC-TR3 peptide fluorescence polarization; stronger effect = higher value; compound at 3.75 mg/L. (In general: Fluorescence polarisation rises when a labelled molecule tumbles more slowly, as on binding a larger partner.)
UniProt Q9HD36, sequence (Q9HD36 whole entry, looked up): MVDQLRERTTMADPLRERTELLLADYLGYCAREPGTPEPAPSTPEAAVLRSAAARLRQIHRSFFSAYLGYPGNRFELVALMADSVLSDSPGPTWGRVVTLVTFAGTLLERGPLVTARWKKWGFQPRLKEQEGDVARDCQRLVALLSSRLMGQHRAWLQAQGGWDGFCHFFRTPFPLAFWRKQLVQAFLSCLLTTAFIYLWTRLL
Regarding `COc1ccc(C(NC=O)c2ccc(OC)c(OC)c2)cc1` (stereo not drawn), the displacement is -3%.
In the case of `COc1cc(/C=N/NC(=O)COc2ccccc2C)c(Br)c(Br)c1O`, the displacement was 3.8%.
Consider `O=C1CCC(C(=O)Nc2ccc(Cl)cc2)N1` (stereo not drawn), for which the displacement was found to be 11%.
The figure for `COC(=O)c1c(NC(=O)COc2ccccc2)sc2c1C(C(=O)OC)CC2` (stereo not drawn) is -12.5%.
The figure for `NC(=O)N/N=C1\NC(=O)/C(=C\c2ccccc2)S1` is 25.7%.
The figure for `COCCN1C(=O)C(=O)/C(=C(/O)c2ccccc2)C1c1cccc(F)c1` (stereo not drawn) is -12.7%; for `CN1C(=O)C(=Cc2ccc(OCc3cccc(C(=O)O)c3)cc2)C(=O)N(C)C1=O` it is 13.1%; for `Cc1cc(OCCCCN2CCC(C)CC2)ccc1Cl` it is -3.2%.
Take `CCOc1ccc(/C=C2\C(=O)C(C(=O)OC)=C(C)N2c2ccc(F)cc2)cc1`: the displacement was -6.6%.
Under `COc1ccc(CNS(=O)(=O)Cc2ccccc2)cc1` stands -4.6%.
Consider `O=C(NCC1CCCO1)c1cc(-c2ccccc2)nc2ccccc12` (stereo not drawn), for which the displacement was -7.9%.
With `Cc1cc(NC(=O)CCc2ccccc2)no1`, the displacement was determined as 5.7%.
On to `COc1ccc(CNC(=O)C(=O)Nc2ccc(Cl)c(C(F)(F)F)c2)cc1`, for which the displacement was -7.4%.
Under `O=C(/C=C/c1ccco1)Nc1scc(-c2cccs2)c1C(=O)O` stands 39.5%.
Under `COc1ccc(/C=N/NC(=O)CSc2n[nH]c(=O)[nH]c2=O)cc1` stands -12.9%; under `NC(=O)c1c(NC(=O)c2ccc(-c3ccccc3)cc2)sc2c1CCCC2`, 6.1%.
In the case of `Nc1nc(SCc2ccc(Cl)cc2)nc2sc3c(c12)CCN(Cc1ccccc1)C3`, the displacement was 16.8%.
With `CN(C)/C=N/n1cnc2scc(-c3ccc(Cl)cc3)c2c1=O`, the displacement amounted to 10.9%.
`COC(=O)c1cc(NC(=O)c2cccc(N(C)C)c2)cc(C(=O)OC)c1`: the displacement is -12.3%.
Under `O=C(COc1ccc2c3c(c(=O)oc2c1)CCC3)c1ccc(-c2ccccc2)cc1` stands 13.4%; under `CN1CCN(CC(=O)N2c3ccccc3Sc3ccccc32)CC1`, -3.8%; under `CCN(CC)c1ccc(N2C(=O)/C(=C/c3ccc(C(=O)O)cc3)SC2=S)cc1`, -0.4%.
The figure for `CCCCCCOc1ccc(N2C(=O)CC(N3CCC(C(N)=O)CC3)C2=O)cc1` (stereo not drawn) is 4.6%.
The figure for `COc1ccc(C(=O)Cn2cnc3c(C#N)c4n(c3c2=O)CCCCC4)cc1` is -1.9%; for `COc1ccc(C)cc1NC(=O)C(=O)NCCc1ccccc1` it is -4.4%; for `CSc1ccc(S(=O)(=O)NCCSc2nc3ccccc3s2)cc1` it is 1.6%.
For `COC(=O)C1=C(C)N(C)C(C)=C(C(=O)OC)C1c1cccc(Cl)c1Cl`, the displacement was -7.4%.
The figure for `CCOC(=O)c1c(NC(=O)c2ccc(S(=O)(=O)N3CCOCC3)cc2)sc2c1CCC2` is 2.2%.
Under `CCOC(=O)c1ccc(NC2=C(C(=O)C(F)(F)F)CCCC2)cc1` stands 1.2%; under `C=CCNC(=O)c1ccc(C(=O)c2cc(OC)ccc2OC)cc1`, -6.5%; under `O=C(/C=C/c1ccc(Cl)cc1)NCCc1nc2ccccc2[nH]1`, -8.7%.
Regarding `CC1S/C(=N\N=C\c2ccccc2F)NC1=O` (stereo not drawn), the displacement was -16.3%.
For `COc1ccc(CC(=O)NCc2ccc3c(c2)OCO3)cc1OC`, the displacement is -17.6%.
As for `COc1ccc(CCNC(=O)CN(c2cc(C)cc(C)c2)S(=O)(=O)c2ccc(OC)c(OC)c2)cc1OC`, the displacement was -1.6%.
The figure for `CCOc1ccccc1NC(=O)COc1ccc(C(C)(C)C)cc1` is 1.4%.
For the molecule `COc1ccc(N2C(=O)C(Cl)=C(Nc3ccc(F)cc3)C2=O)cc1`, the displacement was 11.4%.
`COc1cc(C=C2C(=O)NC(=O)NC2=O)ccc1OCCSc1ccc(C)cc1`: the displacement is 64.1%.
As to `Cc1ccc(-c2ccc(C=C3C(=O)N(C)C(=O)N(C)C3=O)o2)cc1[N+](=O)[O-]`, the displacement was found to be 2.2%.
Under `CCOc1cc(C=C2C(=O)NC(=S)NC2=O)ccc1OCCOc1ccccc1OC` stands 5%.
Under `Cc1ccc(C(=O)NC2Sc3ccccc3N=C2c2ccccc2)cc1` (stereo not drawn) stands 12.1%; under `O=C(Nc1cc(Cl)cc(Cl)c1)c1ccc2c(c1)OCO2`, -5.4%.
The figure for `N#C/C(=C/c1ccc(-c2cc(Cl)ccc2Cl)o1)C(=O)O` is 2%; for `CCOC(=O)Nc1ccc(S(=O)(=O)Nc2ncccn2)cc1` it is -2.2%; for `COc1ccc(CCN=C(C)C2=C(O)CSC2=O)cc1OC` it is 5.5%.
Take `CC1(C)COC(COc2ccc(Cl)cc2)=N1`: the displacement was determined as 4.8%.
Under `Cc1nn(-c2ccccc2)c(C)c1Sc1ccc(Br)cc1` stands -7.3%; under `c1ccc(C(c2ccccc2)c2nc3ccccc3[nH]2)cc1`, 10.3%; under `O=C(c1ccccc1F)N1CCN(c2ccc([N+](=O)[O-])c(N3CCOCC3)c2)CC1`, 12.3%.
In the case of `Clc1ccc(-c2nc(-c3ccncc3)no2)c(Cl)c1`, the displacement was determined as 4.9%.
In the case of `C=CCc1cccc(/C=N/c2ncccc2O)c1O`, the displacement turned out to be 46.1%.
`C=CCSc1nc2sc3c(c2c(=O)[nH]1)CCC3`: the displacement is -4.5%.
Under `O=C(O)C1CCCCC1C(=O)Nc1ccccn1` (stereo not drawn) stands -14.2%; under `COc1ccc(-c2nnc(SCC(=O)NCCOc3ccccc3)n2-c2ccccc2)cc1`, 1.5%; under `CCOc1cccc(C=NN2CCN(c3ccc(Cl)cc3)CC2)c1O`, -8.1%.
Take `CC(C)(C)c1cc(Br)ccc1OCC(=O)NCc1ccccc1`: the displacement is -11.8%.
Under `Cc1cc(C)n(C(=O)CNC(=O)c2ccc(Br)cc2)n1` stands 19.4%.
The figure for `CCOC(=O)C1=C(C)N=c2s/c(=C\c3ccco3)c(=O)n2C1c1ccccc1` (stereo not drawn) is 16.5%; for `COc1ccc(C(=O)NCCOc2ccccc2)c(OC)c1OC` it is -13%; for `O=C(O)CCCCCCCCCCN1C(=O)/C(=C/c2ccc(Br)cc2)SC1=S` it is 5.7%.
For `COc1ccc(-c2noc(COc3ccccc3C)n2)cc1`, the displacement was 0.4%.
As for `Cc1cc([N+](=O)[O-])ccc1-c1ccc(C(=O)Nc2ccccc2O)o1`, the displacement came out at 13.5%.
In the case of `CC1(C)SSC(=O)C1NC(=O)c1ccccc1` (stereo not drawn), the displacement was found to be 18.6%.
As for `CCN(CC)c1ccc(/C=C2/C(=O)NN(c3cccc(Cl)c3)C2=O)c(O)c1`, the displacement came to 1.9%.
Take `CS(=O)(=O)N(Cc1ccccc1)c1ccc(C(=O)N[C@@H]2C[C@H]3CC[C@@H]2C3)cc1`: the displacement was -4.2%.
`COc1ccc(OCC(=O)Nc2ccc(NC(=O)c3ccco3)cc2)cc1`: the displacement was determined as 3%.
With `O=C1C(=O)N(c2cccc(Cl)c2)C(c2ccc(F)cc2)/C1=C(\O)c1ccccc1` (stereo not drawn), the displacement stood at 1.9%.
The figure for `CC1=C(C(=O)Nc2ccc(Cl)cc2)C(c2ccc(C)cc2)NC(=O)N1` (stereo not drawn) is -9.3%; for `CCN(CC)S(=O)(=O)c1cc(C(=O)NCc2ccccc2)ccc1Br` it is -15.5%; for `O=C(Cc1ccc(-c2ccccc2)cc1)NNC(=O)c1cccc(Cl)c1` it is -7.3%.
Under `O=C(Nc1ccccc1C(=O)N1CCN(Cc2ccccc2)CC1)c1ccc([N+](=O)[O-])cc1` stands 10.8%; under `O=C(N/N=C/c1cccc([N+](=O)[O-])c1)C1COc2ccccc2O1` (stereo not drawn), -1.2%.
On to `Cc1ccccc1N1CCN(C(=S)c2ccc(Cl)cc2)CC1`, for which the displacement was 10.6%.
Under `Cc1ccc(S(=O)(=O)N(CCc2ccccc2)CC(=O)NCc2ccco2)cc1` stands 11%; under `CCOc1ccc(N(CC(=O)N[C@@H]2C[C@H]3CC[C@@H]2C3)S(C)(=O)=O)cc1`, 6.3%.
Regarding `COc1ccccc1C(=O)NC(NC(=O)c1ccccc1OC)c1ccc(Br)cc1`, the displacement turned out to be 6.9%.
Under `COc1cccc(N2C(=O)NC(=O)/C(=C/C=C/c3ccccc3)C2=O)c1` stands 3.9%.
Under `O=C(NNC(=O)c1cccc(Cl)c1)c1cccc(F)c1` stands -4.7%; under `Cc1ccc(C(=O)Nc2nc(C)c(C)s2)cc1[N+](=O)[O-]`, 3.4%; under `Cc1ccc(OCc2nnc(NC(=O)Nc3ccccc3)s2)cc1`, 0.8%.
Under `COc1ccc(C(=O)N/C(=C\c2ccc(-c3cccc(Cl)c3)o2)C(=O)NCCCN2CCOCC2)cc1` stands 11.7%; under `NC(=O)c1cc2nc(-c3ccco3)cc(C(F)(F)F)n2n1`, 10.7%.
Regarding `O=C(Nc1ccn(-c2ccccc2)n1)NS(=O)(=O)c1ccccc1Cl`, the displacement worked out at 2.4%.
Under `CCOC(=O)c1c(C)n(C)c2cc(Br)c(C(=O)Oc3ccccc3)cc12` stands 11%; under `O=C(NNC(=O)c1ccc2ccccc2c1O)c1ccccc1Cl`, 6.6%.
Turning to `CCCc1cc(=O)n2[nH]c(-c3cccc(F)c3)cc2n1`, the displacement worked out at 11.9%.
Under `COc1ccccc1-n1cnc2cc(NC(=O)c3ccc(C)cc3)ccc21` stands 9.4%; under `CN(C)CCN1C(=O)C(=O)/C(=C(/O)c2ccccc2)C1c1ccc(Br)cc1` (stereo not drawn), 6.2%; under `Cc1c(-n2c(O)c(C3=c4cc(Br)ccc4=NC3=O)sc2=S)c(=O)n(-c2ccccc2)n1C`, -1.5%.
Consider `CCOC(=O)C(Cc1ccccc1)(NC(C)=O)C(=O)OCC`, for which the displacement was -8.5%.
Under `Cc1ccsc1/C=C1\SC(=S)N(c2c(C)n(C)n(-c3ccccc3)c2=O)C1=O` stands 6.6%; under `O=C(/C(=C/c1ccccc1[N+](=O)[O-])c1nc2ccccc2s1)c1ccccc1`, 8.6%.
The figure for `CC1(C)CC(=O)C2=C(C1)Nc1ccccc1NC2c1c(F)cccc1Cl` (stereo not drawn) is 2.2%; for `O=C1C(=O)N(c2nccs2)C(c2cccc(Br)c2)/C1=C(\O)c1ccc(F)cc1` (stereo not drawn) it is 11.7%; for `O=C(CSc1nc2ccccc2c(=O)n1Cc1ccccc1)c1ccc(Br)cc1` it is -9%.
As for `CC1CCN(CCCCOc2ccccc2C(C)C)CC1`, the displacement was -7.5%.
Regarding `O=C(Nc1ccc(N2CCOCC2)cc1)c1cc2ccccc2oc1=O`, the displacement was -1.6%.
Consider `O=C1N(c2ccccc2)C2CS(=O)(=O)CC2N1c1cccc(Cl)c1` (stereo not drawn), for which the displacement was -9.1%.
As for `CCCCOc1ccc(C(=O)N2c3ccccc3CC2C)cc1` (stereo not drawn), the displacement turned out to be 6.4%.
Regarding `Fc1ccc(-c2nc(-c3cccnc3)no2)cc1`, the displacement is 5.2%.
Under `O=C(CC(Nc1ccc2ncccc2c1)c1ccc(F)cc1)c1ccccc1` (stereo not drawn) stands 8.5%.
Under `COc1ccccc1N1C(=O)c2ccc(C(=O)Nc3ccc(O)cc3C)cc2C1=O` stands 0.7%; under `CSc1ccc(/C=C/C(=O)c2ccc(NC(=O)c3ccccc3F)cc2)cc1`, -3%.
As to `O=C(O)/C=C/c1cccc(NS(=O)(=O)c2ccccc2)c1`, the displacement was 2%.
The figure for `C=CCc1ccccc1OCCOc1c(Br)cc(/C=C2/SC(=S)N(C)C2=O)cc1OC` is 13.9%; for `O=C1C(=O)N(CC2CCCO2)C(c2ccc(Cl)cc2)/C1=C(/O)c1ccccc1` (stereo not drawn) it is -16.7%.
The figure for `CCc1nn2c(N)c(/C=C3\C=C(Br)C=CC3=O)c(=O)nc2s1` is -5%; for `CCOC(=O)C1=C(C)NC(=O)CC1c1cc2c(cc1Br)OCO2` (stereo not drawn) it is -6.4%; for `O=C(O)CC1SC(=NC(=O)c2ccco2)N(c2ccccc2)C1=O` (stereo not drawn) it is 3.2%.
